Measurements published in PMC4336329 (PLoS ONE, 2015).
Hit rate of the full screen: of about 310,000 compounds, about 14,000 (4.5%) showed an effect of 50% or more. The effect is printed as a negative number. The list shows a part of the results.
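Further: peak tail current of the secondary pulse compared with the same well before compound.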

These compounds were tested against human ether-à-go-go-related gene (hERG) potassium channel (human, UniProt Q12809) (assay: primary screen, population patch clamp on CHO cells stably expressing hERG).
Sequence of human ether-à-go-go-related gene (hERG) potassium channel (Q12809 whole entry, looked up): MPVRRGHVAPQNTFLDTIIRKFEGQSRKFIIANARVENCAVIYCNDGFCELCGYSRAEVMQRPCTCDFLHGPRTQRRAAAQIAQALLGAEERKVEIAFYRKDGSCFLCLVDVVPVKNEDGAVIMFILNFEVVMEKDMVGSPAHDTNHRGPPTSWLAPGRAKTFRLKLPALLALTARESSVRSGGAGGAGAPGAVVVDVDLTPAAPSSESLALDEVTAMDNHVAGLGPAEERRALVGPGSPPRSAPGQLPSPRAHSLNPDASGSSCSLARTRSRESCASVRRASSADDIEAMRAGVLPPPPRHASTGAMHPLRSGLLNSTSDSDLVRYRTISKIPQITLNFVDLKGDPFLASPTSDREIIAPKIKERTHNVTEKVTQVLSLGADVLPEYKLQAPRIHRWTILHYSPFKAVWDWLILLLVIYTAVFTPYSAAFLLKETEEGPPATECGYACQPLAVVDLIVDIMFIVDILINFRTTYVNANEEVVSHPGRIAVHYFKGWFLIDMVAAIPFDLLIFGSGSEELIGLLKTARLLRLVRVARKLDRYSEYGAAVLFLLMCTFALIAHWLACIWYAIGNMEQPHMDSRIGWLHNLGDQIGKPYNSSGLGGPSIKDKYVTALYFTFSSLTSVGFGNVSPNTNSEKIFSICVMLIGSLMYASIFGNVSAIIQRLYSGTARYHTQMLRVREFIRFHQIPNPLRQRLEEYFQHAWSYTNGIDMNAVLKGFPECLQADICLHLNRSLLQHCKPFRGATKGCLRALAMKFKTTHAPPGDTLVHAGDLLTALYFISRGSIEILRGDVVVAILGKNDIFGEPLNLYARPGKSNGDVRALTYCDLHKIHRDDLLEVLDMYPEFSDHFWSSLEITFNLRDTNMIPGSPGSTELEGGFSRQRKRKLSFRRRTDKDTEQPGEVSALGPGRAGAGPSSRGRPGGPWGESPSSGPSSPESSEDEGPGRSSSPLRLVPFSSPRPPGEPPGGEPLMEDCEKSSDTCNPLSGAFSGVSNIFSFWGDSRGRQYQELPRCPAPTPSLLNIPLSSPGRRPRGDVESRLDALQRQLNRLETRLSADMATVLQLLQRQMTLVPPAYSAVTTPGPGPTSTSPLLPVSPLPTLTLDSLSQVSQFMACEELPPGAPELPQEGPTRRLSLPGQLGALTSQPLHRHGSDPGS
In the case of `O=C(CCN1C(=O)/C(=C/c2ccccc2F)SC1=S)NCCc1ccc(O)cc1`, the “hERG current change (%, negative = inhibition) at 10uM” value is reported as 14.1%. `CC1=C(C(=O)OCC(C)C)C(c2ccccc2Cl)NC(=O)N1C` (stereo not drawn) was tested, and the “hERG current change (%, negative = inhibition) at 10uM” value was -25.2%. In the case of `Cc1cccc(N=C2SC(C)CN2C(=O)CN2C(=O)NC3(CCCC3)C2=O)c1` (stereo not drawn), the “hERG current change (%, negative = inhibition) at 10uM” value is reported as -37.6%. In the case of `O=C1Nc2ccc(Cl)cc2/C1=C/C1CC=CCC1` (stereo not drawn), the “hERG current change (%, negative = inhibition) at 10uM” value is reported as 0.239%. In the case of `Cc1nc2ccc(S(=O)(=O)NCC(=O)O)cc2s1`, the “hERG current change (%, negative = inhibition) at 10uM” value is reported as 2.48%. In the case of `Cc1cccc(NC(=O)C(c2cccc([N+](=O)[O-])c2)N2CCCCC2)c1` (stereo not drawn), the “hERG current change (%, negative = inhibition) at 10uM” value is reported as -5.83%. `Cc1cc(C(=O)Nc2c(F)cc(F)cc2Br)cs1` was tested, and the “hERG current change (%, negative = inhibition) at 10uM” value was 8.77%. For `O=C(CSc1nnc2c3ccccc3c3ccccc3c2n1)Nc1ccccc1`, the “hERG current change (%, negative = inhibition) at 10uM” value was 1.87%. `Cc1ccc(C)c(NC(CC(=O)c2ccccc2)C(=O)OCC(=O)c2cccs2)c1` (stereo not drawn) was tested, and the “hERG current change (%, negative = inhibition) at 10uM” value was 9.61%. With `COc1cc(S(=O)(=O)Nc2cccnc2)ccc1F` the “hERG current change (%, negative = inhibition) at 10uM” value was -2.69%. For `Cc1cccc(C)c1NC(=O)NCc1ccco1`, the “hERG current change (%, negative = inhibition) at 10uM” value was 13.4%. With `Nc1ccc(N2CCN(c3cccc(Cl)c3)CC2)cc1` the “hERG current change (%, negative = inhibition) at 10uM” value was -14.6%. With `COc1ccc(S(=O)(=O)N2CCN(C)CC2)cc1NC(=O)c1ccccc1C` the “hERG current change (%, negative = inhibition) at 10uM” value was -34.8%. `O=C(O)COn1c(-c2ccccc2)nc2ccc(Cl)cc21` was tested, and the “hERG current change (%, negative = inhibition) at 10uM” value was -8.64%. `CCc1ccc2c(c1)C(NC(C)=O)C(=O)N2CCN1CCOCC1.Cl` (stereo not drawn) was tested, and the “hERG current change (%, negative = inhibition) at 10uM” value was -5.6%. For `COc1ccc(NS(=O)(=O)c2ccc3c(c2)NC(=O)CO3)cc1`, the “hERG current change (%, negative = inhibition) at 10uM” value was 0.556%. In the case of `COc1ccc(C(=O)CN2C(=O)NC3(CCc4ccccc43)C2=O)c(OC)c1` (stereo not drawn), the “hERG current change (%, negative = inhibition) at 10uM” value is reported as 6.24%. In the case of `CC(=O)N1c2ccc(S(=O)(=O)N3CCCC3C(=O)Nc3ccc(C)cc3)cc2CC1C` (stereo not drawn), the “hERG current change (%, negative = inhibition) at 10uM” value is reported as -28.3%. For `CCCOc1ccccc1NC(=O)CC1Nc2ccccc2NC1=O` (stereo not drawn), the “hERG current change (%, negative = inhibition) at 10uM” value was 0.604%. With `CCCOC(=O)C1=C(C)NC2=C(C(=O)CCC2)C1c1cccs1` (stereo not drawn) the “hERG current change (%, negative = inhibition) at 10uM” value was 2.62%. In the case of `O=C1/C(=C\c2ccsc2)NC(=S)N1c1ccccc1`, the “hERG current change (%, negative = inhibition) at 10uM” value is reported as 15.4%. In the case of `C/C=C/C(=O)OCC(=O)Nc1ccc(OC)c(OC)c1`, the “hERG current change (%, negative = inhibition) at 10uM” value is reported as 22.2%. For `O=C(c1ccc2snnc2c1)N1CCN(c2ccccn2)CC1`, the “hERG current change (%, negative = inhibition) at 10uM” value was -10.6%. With `O=C1CC2(CCN(C(=O)c3cccc(F)c3)CC2)Oc2ccccc21` the “hERG current change (%, negative = inhibition) at 10uM” value was -75.1%. In the case of `C=C(C)C1CC=C(C)/C(=N/NC(=O)COc2ccccc2C)C1` (stereo not drawn), the “hERG current change (%, negative = inhibition) at 10uM” value is reported as 1.17%. For `Cc1ccccc1CN1C(=O)c2ccccc2S(=O)c2ccc(C(=O)NCCCN3CCOCC3)cc21` (stereo not drawn), the “hERG current change (%, negative = inhibition) at 10uM” value was -40.5%. In the case of `CC1CCCC(C)N1C(=O)COC(=O)c1c[nH]c2ccccc12` (stereo not drawn), the “hERG current change (%, negative = inhibition) at 10uM” value is reported as -5.3%. With `O=C(CSCc1cccc(CSCC(=O)Nc2ccc3ccccc3c2)n1)Nc1ccc2ccccc2c1` the “hERG current change (%, negative = inhibition) at 10uM” value was 9.54%. In the case of `COc1cccc(Nc2nc(Nc3ccc(Cl)c(C(=O)O)c3)nc(C)c2[N+](=O)[O-])c1`, the “hERG current change (%, negative = inhibition) at 10uM” value is reported as -1.8%. In the case of `CC(=O)N(C(C)=O)N1C(=O)c2cccc3c(N4CCOCC4)ccc(c23)C1=O`, the “hERG current change (%, negative = inhibition) at 10uM” value is reported as 0.47%. With `CSc1nc2ccc(NS(=O)(=O)c3c(Cl)cccc3Cl)cc2s1` the “hERG current change (%, negative = inhibition) at 10uM” value was 1.23%. For `COc1cc(/C=N/Nc2nc(N3CCCC3)nc(N3CCCC3)n2)ccc1OCc1ccccc1F`, the “hERG current change (%, negative = inhibition) at 10uM” value was 8.88%. `Cc1ccccc1-n1nnnc1SC1CCOC1=O` (stereo not drawn) was tested, and the “hERG current change (%, negative = inhibition) at 10uM” value was 14.4%. With `COc1ccccc1Nc1ccc(C(=O)O)cc1[N+](=O)[O-]` the “hERG current change (%, negative = inhibition) at 10uM” value was 14.3%. With `Cc1cccc(C)c1-n1c(C)cc(/C=N/NC(N)=S)c1C` the “hERG current change (%, negative = inhibition) at 10uM” value was 15.6%. `CC(OC(=O)c1ccc(S(=O)(=O)N(C)c2ccccc2)cc1)C(=O)NCCC1=CCCCC1` (stereo not drawn) was tested, and the “hERG current change (%, negative = inhibition) at 10uM” value was 4.08%. With `CC(C)(C)NC(=O)C(c1cccs1)N(Cc1cccs1)C(=O)c1csnn1` (stereo not drawn) the “hERG current change (%, negative = inhibition) at 10uM” value was -22.5%. For `Cc1ccc(-n2c(C)n[nH]c2=S)cc1C`, the “hERG current change (%, negative = inhibition) at 10uM” value was 33.7%. In the case of `CN(C)c1ccc(CNn2cnnc2SCc2ccc(F)cc2)cc1`, the “hERG current change (%, negative = inhibition) at 10uM” value is reported as -9.48%. For `COc1cccc(CN2CCN(Cc3ccco3)CC2)c1.O=C(O)C(=O)O`, the “hERG current change (%, negative = inhibition) at 10uM” value was 12.1%. `Cl.Fc1ccc(C2CCNCC2COc2ccc3c(c2)OCO3)cc1` (stereo not drawn) was tested, and the “hERG current change (%, negative = inhibition) at 10uM” value was -6.92%. In the case of `CN(C)c1ccc(/C=N/N2C(=S)SC(C)(C)C2N(O)C(=O)Nc2ccc([N+](=O)[O-])cc2)cc1` (stereo not drawn), the “hERG current change (%, negative = inhibition) at 10uM” value is reported as -8.05%. `COc1ccc(-c2cn(CCC(=O)O)c(C)n2)cc1` was tested, and the “hERG current change (%, negative = inhibition) at 10uM” value was 3.86%. With `O=c1cc(N2CCCC2)c2ccccc2o1` the “hERG current change (%, negative = inhibition) at 10uM” value was -3.19%. `O=C(Nc1cccc(O)c1)c1noc2c1CCCCC2` was tested, and the “hERG current change (%, negative = inhibition) at 10uM” value was -8.56%.
